# From publication PMC4336329 (PLoS ONE, 2015)
# The campaign covered roughly 310,000 compounds. About 2,200 (0.71%) showed an effect of 50% or more. Effects have a minus sign here. The list shows a part of the results.
# Target: human ether-à-go-go-related gene (hERG) potassium channel (human, UniProt Q12809)
# Test: primary screen, population patch clamp on CHO cells stably expressing hERG
# Chain of human ether-à-go-go-related gene (hERG) potassium channel (Q12809 whole entry, looked up): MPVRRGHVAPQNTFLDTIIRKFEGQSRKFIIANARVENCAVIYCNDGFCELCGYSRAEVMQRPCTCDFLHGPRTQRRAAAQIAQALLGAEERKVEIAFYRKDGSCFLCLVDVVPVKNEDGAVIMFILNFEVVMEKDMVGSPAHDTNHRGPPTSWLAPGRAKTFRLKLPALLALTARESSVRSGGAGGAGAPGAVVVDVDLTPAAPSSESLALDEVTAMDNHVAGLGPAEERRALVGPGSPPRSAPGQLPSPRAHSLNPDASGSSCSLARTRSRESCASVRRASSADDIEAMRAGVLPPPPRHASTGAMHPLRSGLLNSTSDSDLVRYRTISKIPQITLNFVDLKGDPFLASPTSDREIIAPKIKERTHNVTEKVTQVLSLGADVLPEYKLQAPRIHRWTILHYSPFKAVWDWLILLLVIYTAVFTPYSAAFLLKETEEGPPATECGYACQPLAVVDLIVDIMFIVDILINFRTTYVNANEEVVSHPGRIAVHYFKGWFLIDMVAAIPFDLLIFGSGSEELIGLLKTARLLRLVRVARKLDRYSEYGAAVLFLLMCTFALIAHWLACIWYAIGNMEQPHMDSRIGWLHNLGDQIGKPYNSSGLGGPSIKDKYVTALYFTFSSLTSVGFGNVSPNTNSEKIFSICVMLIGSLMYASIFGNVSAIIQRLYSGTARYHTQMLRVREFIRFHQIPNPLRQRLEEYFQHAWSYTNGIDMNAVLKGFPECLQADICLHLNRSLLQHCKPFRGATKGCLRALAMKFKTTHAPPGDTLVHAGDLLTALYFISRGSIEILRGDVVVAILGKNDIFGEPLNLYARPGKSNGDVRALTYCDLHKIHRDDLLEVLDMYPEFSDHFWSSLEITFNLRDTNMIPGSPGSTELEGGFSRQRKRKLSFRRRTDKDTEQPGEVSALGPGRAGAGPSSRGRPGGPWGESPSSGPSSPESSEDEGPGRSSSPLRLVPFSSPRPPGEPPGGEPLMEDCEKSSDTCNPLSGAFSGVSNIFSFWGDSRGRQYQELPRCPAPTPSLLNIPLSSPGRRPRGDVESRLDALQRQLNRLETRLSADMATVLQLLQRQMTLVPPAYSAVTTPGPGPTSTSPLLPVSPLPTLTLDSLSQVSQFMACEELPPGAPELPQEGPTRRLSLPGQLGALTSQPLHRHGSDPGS
row,Structure (SMILES),"hERG current change (%, negative = inhibition) at 1uM [%]"
1,NCCCNc1nc(N)c([N+](=O)[O-])c(NC2CCCCC2)n1,5.5
2,COc1cc(C2NC(=O)C(C#N)=C(S)N2c2ccccc2)ccc1OC(C)C (centres unmarked),16.2
3,COc1ccc(OC)c(N2CC(O)(c3ccccc3)[N+]3=C2SCCC3)c1.[Br-] (centres unmarked),-24.6
4,O=C(CSCc1ccc(F)cc1)NC1CCCC1,5.03
5,O=C1CCC(C(=O)OCc2nnc(-c3ccc(Cl)cc3)o2)=NN1,15.1
6,CCOC(=O)N1CCN(S(=O)(=O)c2ccc(OCC(=O)OC)cc2)CC1,13.7
7,Cc1cccc(C)c1NC(=O)CN(C)C(=O)c1ccccc1Cc1ccccc1,4.35
8,O=C(CCCC(=O)N1CCN(c2cccc(Cl)c2)CC1)c1ccccc1,1.83
9,CC(C)C(=O)Nc1nnc(SCC(=O)NCc2ccc3c(c2)OCO3)s1,11.7
10,Cn1c(=O)cc(SCC(=O)NCCC2=CCCCC2)c2cc(Cl)ccc21,2.05
11,COc1cc(Cl)c(C)cc1NC(=O)CSc1nc2ccccc2o1,18
12,c1ccc(-c2nn[nH]n2)nc1,12.5
13,Cc1ccc(NC(=O)CCCC2CCCCC2)c(O)c1,4.31
14,CCC1CCCCN1C(=O)C1CC(c2cc(Cl)c(OC)cc2OC)=NO1 (centres unmarked),15.8
15,COc1ccc(OC)c2sc(N3CCN(C(=O)c4ccc5ncsc5c4)CC3)nc12,5.07
16,COc1cc(C2C3=C(CC(C)(C)CC3=O)OC3=C2C(=O)CC(C)(C)C3)cc([N+](=O)[O-])c1O,7.64
17,CN(C)CCCNC(=O)c1ccc2[nH]c3ccccc3c2c1,-3.67
18,COc1ccc(Br)cc1C1SCCN1S(C)(=O)=O (centres unmarked),6.03
19,O=C(COC(=O)COc1ccccc1)NCCc1ccccc1,8.55
20,Cc1occc1C(=O)Nc1cccc2ccccc12,10.8
21,O=C(COC(=O)CNC(=O)c1ccccc1)NCCNC(=O)COC(=O)CNC(=O)c1ccccc1,7.34
22,COc1ccc(C(=O)OCC(=O)N(C)C2CCS(=O)(=O)C2)cc1S(=O)(=O)N(C)Cc1ccccc1 (centres unmarked),10.1
23,O=C(Nn1cnc2ccccc2c1=O)c1ccccc1Cl,12.8

row,Structure (SMILES),"hERG current change (%, negative = inhibition) at 1uM [%]"
1,COC(=O)Nc1ccc(S(=O)(=O)Nc2cc(C(F)(F)F)c[nH]c2=O)cc1,17.3
2,O=C(CSc1nnc(NC(=O)c2ccco2)s1)NC1CCCC1,18.8
3,CCOC(=O)Cn1c(S(=O)(=O)Cc2ccc(F)cc2)nc(-c2ccccc2)c1-c1ccccc1,3.66
4,CCOC(=O)N1CCN(CC(=O)Nc2ccc([N+](=O)[O-])cc2C(=O)Nc2ccccc2F)CC1,-5.13
5,Cc1c(C(=O)O)sc2nc3n(c(=O)c12)CCC(C)CC3 (centres unmarked),7.56
6,Cc1ccc(C(=O)N2CCN(S(=O)(=O)N3CCCCCC3)CC2)cc1,9.4
7,COC(=O)CC1=C(C(=O)OC)C(c2cc(OC)c(OC)cc2OC)C(C#N)=C(N)O1 (centres unmarked),-6.5
8,O=C(NNC(=O)c1ccc(NC(=O)c2ccccc2)cc1)c1ccc(F)cc1,18
9,OCCC1CN(Cc2cccc(O)c2)CCN1CCc1ccccc1 (centres unmarked),-5.31
10,CCN(c1ccccc1)C1(O)C(=O)c2ccccc2C1=O,22.7
11,COc1ccccc1OCc1ccc(C(=O)NCc2ccco2)o1,11.5
12,Cc1nnc(SCC(=O)Nc2ccc3c(c2)OCCO3)n1N,14.8
13,COc1ccccc1CNC(=O)C1(NC(=O)Nc2ccc(C)cc2)CCCCC1,27.6
14,Cc1cccnc1NC(=O)CSc1nnc(CNC(=O)c2cccc([N+](=O)[O-])c2)n1C,12.8
15,N=C1C2=C3Sc4ccccc4N3CCCC2=NN1c1cccc(S(=O)(=O)O)c1,16.7
16,C/C(=N\NC(=O)CSCc1cccc(Br)c1)c1ccc([N+](=O)[O-])cc1,4.58
17,CCn1c(SCC(=O)Nc2nnc(C)s2)nnc1C(C)NC(=O)c1ccccc1F (centres unmarked),14.2
18,CC(C)(C)Oc1ncc(Br)c(OC(C)(C)C)n1,4.83
19,O=C1C2CCCCC2C(=O)N1c1nccs1 (centres unmarked),5.43
20,COc1ccccc1/C=N/Nc1nc(C)cc(C)n1,8
21,COc1ccc(C(=O)N=c2nc3ccccn3s2)cc1,11.6
22,Cn1c(SCC(=O)NCC2CCCO2)nnc1-c1c[nH]c2ccccc12 (centres unmarked),-5.97
23,COC(=O)c1ccc(NC(=O)c2ccc3c(c2)OCO3)cc1,1.59

row,Structure (SMILES),"hERG current change (%, negative = inhibition) at 1uM [%]"
1,Cc1cccc(-c2c3c(=O)n(C)c(=O)n(C)c3cn2CC2CCCO2)c1 (centres unmarked),7.56
2,CC(C)=CC(=O)Nc1ccc(Br)cc1,14.7
3,Cn1c(-c2sc3ccccc3c2Cl)n[nH]c1=S,17.3
4,CCCc1nnc(NC(=O)CCC(=O)NCc2ccc(OC)cc2)s1,12.9
5,CCCc1cc(N2CCCC2)n2nc(C)c(-c3ccccc3)c2n1,17.5
6,Cc1ccc(NC(=O)c2cnccn2)cc1C,15.4
7,Oc1ccc2ccccc2c1C=NCc1ccccc1,11.2
8,CCCCCC(=O)N1CC2(CC(c3cccc(NC(=O)CC(c4ccccc4)c4ccccc4)c3)=NO2)C[C@@H]1C(N)=O (some centres unmarked),14.4
9,Cc1cnc2c(c1)C(=O)c1ccccc1-2,14.2
10,CC(=O)C1=C(C)NC2(O)c3ccccc3C(=O)C12O (centres unmarked),-24.5
11,O=C(C1CC1)N1CCN(Cc2ccccc2)CC1,2.72
12,COc1ccc(OC(=O)NCCc2ccccc2)cc1,12.2
13,CCC1CCCCN1C(=O)CN1C(=O)c2ccccc2S1(=O)=O (centres unmarked),0.147
14,COc1ccc(NC(=S)Nc2cc(C)[nH]n2)cc1Cl,9.79
15,CCOC(=O)C1CCN(C2=C(NS(=O)(=O)c3ccc(Cl)cc3)C(=O)c3ccccc3C2=O)CC1,-3.02
16,COc1ccc(NC(=O)CSc2ccc(C)cc2)cc1,14.5
17,O=C(c1cccc(C(=O)N2CCN(c3ncccn3)CC2)c1)N1CCN(c2ncccn2)CC1,1.42
18,COc1ccc(NC(=O)CSCC(=O)N(C)CC(=O)Nc2ccc(Cl)c(C(F)(F)F)c2)cc1,-12.7
19,Cc1ccc(NC(=O)CN(C)C(=O)c2ccc(Sc3nncn3C)c([N+](=O)[O-])c2)cc1,-7.49
20,COc1ccc(C(CC(=O)O)N2C(=O)CCC2=O)cc1 (centres unmarked),13.3
21,Cc1cc(C)n(CCC(=O)N/N=C/c2ccc(Br)c([N+](=O)[O-])c2)n1,8.07
22,CN1C=CC(=CC=C2C=CC(=O)C=C2)C=C1,14.3
23,COc1ccc(OC)c(NC(=O)CSc2nc(=O)n(CCN3CCOCC3)c3c2CCC3)c1,0.447

row,Structure (SMILES),"hERG current change (%, negative = inhibition) at 1uM [%]"
1,Cc1nc(NCc2ccccc2)c2cc[nH]c2n1,18.9
2,CC(C)[N+](C)(C)CC#CC(O)(c1ccccc1)c1ccccc1.[Br-],12.9
3,CCn1c(CCCCc2n[nH]c(=S)n2CC)n[nH]c1=S,10.6
4,O=C1Nc2ccccc2N(O)N1c1cc(-c2ccccc2)[nH]n1,7.55
5,N/C(COc1ncn(-c2ccccc2)n1)=N\S(=O)(=O)c1ccccc1,6.11
6,COc1ccc(OC)c(C2=NO[C@@](CC(=O)O)(C(=O)Nc3ccc4c(c3)OCCO4)C2)c1,10.1
7,Cc1ccc[n+](C(C)C(=O)Nc2ccc(C)c([N+](=O)[O-])c2)c1.[Br-] (centres unmarked),11.8
8,COc1ccc(C(=O)NCc2cccs2)cc1S(=O)(=O)N1CCOCC1,18.4
9,Cc1cccc(Nc2nc3c(S(=O)(=O)c4ccccc4)nnn3c3ccccc23)c1C,5.16
10,O=C(c1cccs1)N1CCN(S(=O)(=O)c2cccs2)CC1,7.82
11,Cc1ccc(CNC(=O)CC2Sc3ccccc3NC2=O)cc1 (centres unmarked),20.1
12,COc1ccc(NC(=O)c2sc3nc(N4CCCC4)c4c(c3c2N)CC(C)(C)OC4)cc1,12.7
13,COc1ccc2cc(C(c3nnnn3CC3CCCO3)N3CCOCC3)c(=O)[nH]c2c1 (centres unmarked),5.7
14,COc1cc(NS(=O)(=O)c2ccc(N/C=C\C(=O)c3ccc(F)cc3)cc2)nc(OC)n1,3.47
15,CCCCNC(=O)/C(=C/c1ccccc1)NC(C)=O,1.06
16,COc1ccccc1N1CCN(C(=O)c2c(-c3c(Cl)cccc3Cl)noc2C)CC1,9.91
17,O=C(O)C(Cc1c[nH]c2ccccc12)NS(=O)(=O)c1ccc(Cl)cc1 (centres unmarked),8.72
18,O=C(CCc1nnc2ccc(N3CCC4(CC3)OCCO4)nn12)Nc1cc(F)ccc1F,0.794
19,O=C(O)c1ccccc1C(=O)N1CCN(C(=O)c2ccccc2Cl)CC1,8
20,CC(Oc1ccccc1)C(=O)N1CCC2(CC1)Oc1ccc(F)cc1C(=O)C21CC(c2cccnc2)=NO1 (centres unmarked),0.202
